Data: PMC12040169 (PLOS Biology, 2025)
The other results are listed elsewhere or left out.

The molecules below were run on T1, C. trachomatis L2/434/Bu expressing GFP (CTL2-GFP). Conditions: total inclusion area; 28.5 h, 10 µM; inhibitor.
T1 construct: L2/434/Bu GFP intracellular growth in HeLa cells
Set-up: species or system HeLa; C. trachomatis total inclusion area by high-content imaging, normalised to DMSO
Procedure, shortened: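 High-content imaging followed the bulk GFP/resorufin measurement: fixed, Hoechst-stained cells were scored for GFP inclusions and host nuclei per well. Total inclusion area and count served as growth proxies, nuclei number as the viability proxy. MIC calculation matched the bulk assay.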

Compound | % of control remaining
O=C(NCCc1ccccc1)NCCc1cccs1 [CBK045154] | 105.602
Cc1cccc2cnc(C3CCN(C(=O)CCc4ccno4)CC3)cc12 [CBK285197] | 75.5392
O=C(CCNC(Cc1ccccc1)C(=O)O)c1ccccc1 (stereo not drawn) [CBK286655] | 66.2121
O=C(N/N=C/c1ccc[nH]1)C1CC1c1ccccc1 (stereo not drawn) [CBK022120] | 70.8449
COc1ccccc1C(=O)NCCCc1nc2ccccc2[nH]1 [CBK269837] | 86.7273
COc1ccc(-c2nc(NC3CCCCC3)c3ccccc3n2)cc1 [CBK058109] | 84.0126
NCCNCCCCOc1ccc(Cl)c(Cl)c1 [CBK265059] | 83.7632
COc1ccc(S(=O)(=O)Nc2cc(C(=O)O)ccc2C)cc1NC(C)=O [CBK296946] | 52.4501
O=C1C2C3C=CC(C3)C2C(=O)N1CCN1CCN(S(=O)(=O)/C=C/c2ccccc2)CC1 (stereo not drawn) [CBK263663] | 110.72
Cc1cc(CNS(=O)(=O)c2sc3ccc(C(C)C)cc3c2C)no1 [CBK170353] | 121.349
CCn1cc(CN2CCCN(C(=O)c3cn4ccccc4n3)CC2)cn1 [CBK304784] | 74.3652
CNCC(=O)N[C@H]1CCN2C(=O)c3ccc(Cl)cc3NC(=O)[C@@H]2C1 [CBK289566] | 86.3028
O=[N+]([O-])c1ccc(CN2CCN(Cc3cc(Br)ccc3O)CC2)cc1 [CBK263652G] | 81.8303
N#Cc1c(NC(=O)CN2CCN(Cc3ccccc3)CC2)sc2c1CCCC2 [CBK267969] | 83.6835
Cc1ccc(C(CCO)Nc2ncnc3c2c(C)nn3C)cc1 (stereo not drawn) [CBK307387] | 61.3093
Cc1nonc1CC(=O)NC1(c2ccc(F)cc2)CCCC1 [CBK283613] | 93.5615
COc1ncc(-c2nccnc2OCCn2cnc3c2c(=O)n(C)c(=O)n3C)c(OC)n1 [CBK106746] | 97.6986
Cc1cc(CN2CCN(S(=O)(=O)c3ccc(-c4ccccc4)cc3)CC2)cc(C)c1O [CBK062747] | 71.5675
CN(C)C(=O)c1ccc(-c2ccc3c(c2)OC(C2CCN(C(=O)OCc4ccccc4)CC2)OC3)cc1 (stereo not drawn) [CBK144649] | 68.2605
O=C(Nc1nccc(-c2cc(OCC(F)(F)F)ccc2OCC(F)(F)F)n1)c1cccs1 [CBK005949] | 44.4128
Cc1nc(C)c(C(=O)NCCN2CCCC2=O)s1 [CBK282222] | 103.194

Compound | % of control remaining
O=C(COC(=O)C1CCC(N2C(=O)c3ccccc3C2=O)CC1)c1ccc(-c2ccccc2)cc1 (stereo not drawn) [CBK264789] | 96.8657
Cn1c(=O)c2[nH]c(N3CCN(c4cccc(O)c4)CC3)nc2n(C)c1=O [CBK269760] | 87.4264
O=C(N/N=C\c1ccccc1C(F)(F)F)c1ccc(=O)[nH]n1 [CBK263389] | 79.7023
CC(C)(C)c1csc(N2CCSCC2)n1 [CBK021950] | 19.8116
O=C(O)CCn1ncc2ccccc21 [CBK262257] | 84.3051
O=C(NC(Cc1ccsc1)c1ccccn1)c1ccc(=O)[nH]c1 (stereo not drawn) [CBK285272] | 92.6861
COc1ccccc1OCCNC1CCc2cc(Cl)ccc2C1 (stereo not drawn) [CBK013067C] | 90.2971
Cc1nn(CCC#N)c(C)c1[C@@H]1C=C[C@@H](NC(=O)NC(C)C)C1 [CBK289172] | 87.8118
Cc1cccc(C(=O)Nc2ccc(C(=O)NNC(=O)C(C)(C)C)cc2)c1 [CBK269073] | 67.977
COc1cc(CNC(=O)c2cccc(-c3ccc(OC4CCNCC4)cc3)n2)cc(OC)c1OC [CBK126550T] | 86.9506
Cn1cc(C(=O)N2CCC3(C/C=C/C[C@H]4COCC[C@H]4NC(=O)CNC3=O)CC2)cn1 [CBK292069] | 110.699
Cc1ccc(N(CC(=O)Nc2ccc(C)cc2C)S(=O)(=O)N2CCCC2)cc1 [CBK265998] | 96.4031
CC(NS(=O)(=O)c1ccc(Cl)cc1)C(=O)Nc1ccccc1Sc1ccccc1 (stereo not drawn) [CBK266984] | 94.3597
CCOC(=O)C(NC(=O)N(C1=NCC(C)S1)C1CCCCC1)(OC)C(F)(F)F (stereo not drawn) [CBK021431] | 102.107
N#CC1CCCc2c1[nH]c1ccc(Cl)cc21 (stereo not drawn) [CBK101438] | 50.5577
Cc1ccc(C2=CCN(S(=O)(=O)c3ccc(F)cc3)CC2)o1 [CBK283571] | 67.3055
O=C1COc2ccccc2C/C=C/C[C@H]2CNCC[C@H]2N1 [CBK292033] | 109.701
C/C(=N\NC(=O)c1ccc(CN2CCOCC2)cc1)c1ccc2c(c1)OCCO2 [CBK262755] | 98.4603
CC(=O)NCCSc1nc2ccccc2nc1NC(C)C [CBK105618] | 106.943
Cn1cc(-c2nc(C3CCCCCN3C(=O)c3cccnc3)no2)cn1 (stereo not drawn) [CBK305387] | 83.477
O=C1CC(N2CCN(Cc3ccc4c(c3)OCO4)CC2)C(=O)N1CCc1ccccc1 (stereo not drawn) [CBK074541] | 63.9662

Compound | % of control remaining
CC(C)Nc1cc(Sc2ccc(Br)cc2)ncn1 [CBK089502] | 105.988
Cc1ccc2[nH]c(Cc3ccc(NC(=O)c4cc(=O)n(C)c5ccccc45)cc3)nc2c1 [CBK285815] | 105.244
Clc1cncc(OCCc2c[nH]c3ccccc23)n1 [CBK176027] | 39.8106
COc1ccc(Nc2nc(-c3cccnc3)cnc2N)cc1 [CBK063952] | 69.7528
Cc1cc(N(C)CCc2ccccc2)nc2cc(Cl)ccc12 [CBK262221] | 82.1607
O=C(CN1CCC(O)(Cc2ccccc2)CC1)N1CCCCCC1 [CBK283500] | 105.575
O=C1NCCCC12CCN(Cc1cccc(F)c1F)CC2 [CBK284877] | 108.514
CCCC(=O)c1ccc(S(=O)(=O)N2CCN(Cc3csc(-c4ccccc4)n3)CC2)cc1 [CBK063161] | 85.7527
COc1ccc(C(=O)N2CCN3C(=O)CCC32C)s1 (stereo not drawn) [CBK282058] | 100.707
COc1cc(OC)nc(C(NC(=O)C2CCN(Cc3cn(C)c4ccccc34)CC2)c2ccc(F)cc2)n1 (stereo not drawn) [CBK148185] | 99.7421
Cc1ncc(CN(Cc2ccccn2)Cc2ccccc2Cl)n1C [CBK282128] | 87.603
O=C(Cn1c(-c2cccs2)n[nH]c1=S)N1CCC(c2nc3cc(Cl)ccc3o2)CC1 [CBK297765] | 99.3295
O=c1ccc2c(-c3ccccc3)ccnc2[nH]1 [CBK073723] | 95.1015
Cc1cc(C)c(S(=O)(=O)Nc2nnc(C(C)C)s2)c(C)c1 [CBK045516] | 85.7379
Cc1nc(COc2ccc(F)cc2)sc1C(=O)O [CBK305074] | 68.0569
CN1CCN(C(=O)c2ccc(Cl)c(S(=O)(=O)N3CCCCC3)c2)CC1 [CBK262228] | 94.7658
CCCC/C=C/c1cc(NCCc2ccccn2)n2nccc2n1 [CBK037155] | 81.8456
O=C(C1CCCO1)N1C2CCC1CC(O)(c1ccco1)C2 (stereo not drawn) [CBK284035] | 111.778
NS(=O)(=O)c1ccc(CCNC(=O)C2c3ccccc3Oc3ccccc32)cc1 [CBK264389] | 118.118
O=C(Nc1cccnc1)c1ccc(CN2CCC(Cc3ccccc3)CC2)cc1 [CBK264095] | 89.7707
O=C(O)CCN1CCn2c3c(c4cc(C5CCCCC5)ccc42)CCCC31 (stereo not drawn) [CBK263236] | 78.4551

Compound | % of control remaining
O=C(Cc1ccccc1)N1CCC(CC(=O)N2CCC3(CCCCC3)C2)CC1 [CBK286031] | 120.949
CS(=O)(=O)Nc1ccc(CNC(=O)C2(c3ccccc3)CCCC2)cc1 [CBK161525] | 99.8098
Cn1c(CN2CCCC2)nc2cc(NC(=O)c3cccc([N+](=O)[O-])c3)ccc21 [CBK268316] | 93.0521
O=[N+]([O-])c1ccc(NCCNCCO)c(Cl)c1 [CBK261006] | 90.8229
CN1CCN(C(=O)c2cccc(-c3nc(-c4ccc(C#N)cc4)cnc3N)c2)CC1 [CBK064144] | 77.5637
Cc1ccc(S(=O)(=O)Nc2cccc(C(=O)O)c2)cc1 [CBK038891] | 98.5495
O=C(NC1CCN(Cc2ccccc2)C1)c1ccc(F)cc1 (stereo not drawn) [CBK283044] | 82.4973
Oc1cccc(-c2nccnc2NCCc2ccccn2)c1 [CBK037388] | 117.23
O=C(NCc1ccccn1)C1CCN(S(=O)(=O)c2ccc(Cl)cc2)CC1 [CBK264959] | 100.158
N#Cc1ccccc1CSc1nc(N)cc(O)n1 [CBK267967] | 116.321
Cc1cc(NC(=O)CN2CCN(c3ccc(F)cc3)CC2)nc2c1c(=O)oc1ccccc12 [CBK291232] | 115.555
Cc1ccccc1OCCn1c(=N)n(CC(C)C)c2ccccc21 [CBK265392B] | 71.5686
FC(F)(F)c1cccnc1OCCNc1ccccc1 [CBK115822] | 112.321
Brc1cn2c(-c3ccccc3)cnc2c(N2CCCC2)n1 [CBK091488] | 73.2097
O=C(NCCCC1CCOC1)c1cnn(-c2ccc(F)cc2)c1 (stereo not drawn) [CBK283288] | 100.345
Cc1cnc(NC(=O)N2CCOC(c3ccc(F)cc3F)C2)s1 (stereo not drawn) [CBK304126] | 44.8542
N#Cc1nc(/C=C/c2cccs2)oc1NCCCn1ccnc1 [CBK269455] | 70.0443
O=C(O)COc1ccc(S(=O)(=O)N2CCCc3ccccc32)cc1 [CBK269935] | 80.1912
